# The list shows a part of the results.
# B1: 3FTT (Staphylococcus aureus), Q5HCZ5 (protein)
# chain: MTEKEKMLAEKWYDANFDQYLINERARAKDICFELNHTRPSATNKRKELIDQLFQTTTDNVSISIPFDTDYGWNVKLGKNVYVNTNCYFMDGGQITIGDNVFIGPNCGFYTATHPLNFHHRNEGFEKAGPIHIGSNTWFGGHVAVLPGVTIGEGSVIGAGSVVTKDIPPHSLAVGNPCKVVRKIDNDLPSETLNDETIK
# Tests used:
# Assay in all cases: glycan array binding signal (z-score within array); higher = stronger binding
# Details in all cases: glycan notation: IUPAC condensed, linker removed
# [1] = molecular target: Man(a1-2)Man(a1-3)[Man(a1-6)]Man(a1-6)[Man(a1-2)Man(a1-3)]Man(b1-4)GlcNAc(b1-4)GlcNAc
# Procedure, shortened: (§1)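 From the Consortium for Functional Glycomics database, 3228 arrays were curated, keeping only those whose protein sequence was available. Binding is given as a within-array Z-score averaged across arrays sharing a protein sequence and across linkers. Negative Z-scores can be read as non-binding.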
# [2] = molecular target: Man(a1-2)Man(a1-6)[Man(a1-3)]Man(a1-6)[Man(a1-2)Man(a1-2)Man(a1-3)]Man
# Procedure, shortened: as §1
# [3] = molecular target: Man(a1-2)Man(a1-6)[Man(a1-3)]Man(a1-6)[Man(a1-2)Man(a1-2)Man(a1-3)]Man(b1-4)GlcNAc(b1-4)GlcNAc
# Procedure, shortened: as §1
# [4] = molecular target: Man(a1-3)[Man(a1-6)]Man
# Procedure, shortened: as §1
# [5] = molecular target: Man(a1-3)[Man(a1-6)]Man(a1-6)[Man(a1-2)Man(a1-3)]Man(b1-4)GlcNAc(b1-4)GlcNAc
# Procedure, shortened: as §1
# [6] = molecular target: Man(a1-3)[Man(a1-6)]Man(a1-6)[Man(a1-3)]Man
# Procedure, shortened: as §1
# [7] = molecular target: Man(a1-3)[Man(a1-6)]Man(a1-6)[Man(a1-3)]Man(b1-4)GlcNAc(b1-4)GlcNAc
# Procedure, shortened: as §1
# [8] = molecular target: Man(a1-3)[Man(a1-6)]Man(b1-4)GlcNAc(b1-4)GlcNAc
# Procedure, shortened: as §1
# [9] = molecular target: Man(a1-6)Man
# Procedure, shortened: as §1
# [10] = molecular target: Man(b1-4)GlcNAc
# Procedure, shortened: as §1
# [11] = molecular target: Neu5Ac(a2-3)Gal
# Procedure, shortened: as §1
# [12] = molecular target: Neu5Ac(a2-3)Gal(b1-3)GalNAc
# Procedure, shortened: as §1
# [13] = molecular target: Neu5Ac(a2-3)Gal(b1-3)GalNAc(b1-3)Gal(a1-4)Gal(b1-4)Glc
# Procedure, shortened: as §1
# [14] = molecular target: Neu5Ac(a2-3)Gal(b1-3)GalNAc(b1-4)[Neu5Ac(a2-3)]Gal(b1-4)Glc
# Procedure, shortened: as §1
# [15] = molecular target: Neu5Ac(a2-3)Gal(b1-3)GalNAc(b1-4)[Neu5Ac(a2-8)Neu5Ac(a2-3)]Gal(b1-4)Glc
# Procedure, shortened: as §1
# [16] = molecular target: Neu5Ac(a2-3)Gal(b1-3)GalNAc6S
# Procedure, shortened: as §1
# [17] = molecular target: Neu5Ac(a2-3)Gal(b1-3)GlcNAc
# Procedure, shortened: as §1
# [18] = molecular target: Neu5Ac(a2-3)Gal(b1-3)GlcNAc(b1-3)Gal(b1-3)GlcNAc
# Procedure, shortened: as §1
# [19] = molecular target: Neu5Ac(a2-3)Gal(b1-3)GlcNAc(b1-3)Gal(b1-4)GlcNAc
# Procedure, shortened: as §1
# [20] = molecular target: Neu5Ac(a2-3)Gal(b1-3)GlcNAc(b1-3)GalNAc
# Procedure, shortened: as §1
# [21] = molecular target: Neu5Ac(a2-3)Gal(b1-3)GlcNAc6S
# Procedure, shortened: as §1
# [22] = molecular target: Neu5Ac(a2-3)Gal(b1-3)[Fuc(a1-4)]GlcNAc
# Procedure, shortened: as §1
# [23] = molecular target: Neu5Ac(a2-3)Gal(b1-3)[Fuc(a1-4)]GlcNAc(b1-3)Gal(b1-3)[Fuc(a1-4)]GlcNAc
# Procedure, shortened: as §1
# [24] = molecular target: Neu5Ac(a2-3)Gal(b1-3)[Fuc(a1-4)]GlcNAc(b1-3)Gal(b1-4)[Fuc(a1-3)]GlcNAc
# Procedure, shortened: as §1
# [25] = molecular target: Neu5Ac(a2-3)Gal(b1-3)[Neu5Ac(a2-3)Gal(b1-4)]GlcNAc
# Procedure, shortened: as §1
# [26] = molecular target: Neu5Ac(a2-3)Gal(b1-3)[Neu5Ac(a2-6)]GalNAc
# Procedure, shortened: as §1
# [27] = molecular target: Neu5Ac(a2-3)Gal(b1-4)Glc
# Procedure, shortened: as §1
# [28] = molecular target: Neu5Ac(a2-3)Gal(b1-4)GlcNAc
# Procedure, shortened: as §1
# [29] = molecular target: Neu5Ac(a2-3)Gal(b1-4)GlcNAc(b1-2)Man(a1-3)[GlcNAc(b1-2)Man(b1-4)GlcNAc(b1-2)Man(a1-6)]Man(b1-4)GlcNAc(b1-4)GlcNAc
# Procedure, shortened: as §1
# [30] = molecular target: Neu5Ac(a2-3)Gal(b1-4)GlcNAc(b1-2)Man(a1-3)[Neu5Ac(a2-6)Gal(b1-4)GlcNAc(b1-2)Man(a1-6)]Man(b1-4)GlcNAc(b1-4)GlcNAc
# Procedure, shortened: as §1
# [31] = molecular target: Neu5Ac(a2-3)Gal(b1-4)GlcNAc(b1-3)Gal
# Procedure, shortened: as §1
# [32] = molecular target: Neu5Ac(a2-3)Gal(b1-4)GlcNAc(b1-3)Gal(b1-3)GlcNAc
# Procedure, shortened: as §1
# [33] = molecular target: Neu5Ac(a2-3)Gal(b1-4)GlcNAc(b1-3)Gal(b1-4)GlcNAc
# Procedure, shortened: as §1
# [34] = molecular target: Neu5Ac(a2-3)Gal(b1-4)GlcNAc(b1-3)Gal(b1-4)GlcNAc(b1-3)Gal(b1-4)GlcNAc
# Procedure, shortened: as §1
# [35] = molecular target: Neu5Ac(a2-3)Gal(b1-4)GlcNAc(b1-3)Gal(b1-4)[Fuc(a1-3)]GlcNAc
# Procedure, shortened: as §1
# [36] = molecular target: Neu5Ac(a2-3)Gal(b1-4)GlcNAc(b1-3)GalNAc
# Procedure, shortened: as §1
# [37] = molecular target: Neu5Ac(a2-3)Gal(b1-4)GlcNAc(b1-6)[Gal(b1-3)]GalNAc
# Procedure, shortened: as §1
# [38] = molecular target: Neu5Ac(a2-3)Gal(b1-4)GlcNAc(b1-6)[Neu5Ac(a2-3)Gal(b1-3)]GalNAc
# Procedure, shortened: as §1
# [39] = molecular target: Neu5Ac(a2-3)Gal(b1-4)GlcNAc6S
# Procedure, shortened: as §1
# [40] = molecular target: Neu5Ac(a2-3)Gal(b1-4)[Fuc(a1-3)]GlcNAc
# Procedure, shortened: as §1
# [41] = molecular target: Neu5Ac(a2-3)Gal(b1-4)[Fuc(a1-3)]GlcNAc(b1-3)Gal
# Procedure, shortened: as §1
# [42] = molecular target: Neu5Ac(a2-3)Gal(b1-4)[Fuc(a1-3)]GlcNAc(b1-3)Gal(b1-4)GlcNAc
# Procedure, shortened: as §1
# [43] = molecular target: Neu5Ac(a2-3)Gal(b1-4)[Fuc(a1-3)]GlcNAc(b1-3)Gal(b1-4)[Fuc(a1-3)]GlcNAc(b1-3)Gal(b1-4)[Fuc(a1-3)]GlcNAc
# Procedure, shortened: as §1
# [44] = molecular target: Neu5Ac(a2-3)Gal(b1-4)[Fuc(a1-3)]GlcNAc(b1-3)GalNAc
# Procedure, shortened: as §1
# [45] = molecular target: Neu5Ac(a2-3)Gal(b1-4)[Fuc(a1-3)]GlcNAc(b1-6)[Gal(b1-3)]GalNAc
# Procedure, shortened: as §1
# [46] = molecular target: Neu5Ac(a2-3)Gal(b1-4)[Fuc(a1-3)]GlcNAc6S
# Procedure, shortened: as §1
# [47] = molecular target: Neu5Ac(a2-3)Gal6S(b1-4)GlcNAc
# Procedure, shortened: as §1
# [48] = molecular target: Neu5Ac(a2-3)Gal6S(b1-4)[Fuc(a1-3)]GlcNAc
# Procedure, shortened: as §1
# [49] = molecular target: Neu5Ac(a2-3)GalNAc
# Procedure, shortened: as §1
# [50] = molecular target: Neu5Ac(a2-3)GalNAc(b1-4)GlcNAc
# Procedure, shortened: as §1
binder,measurement,setting,value
B1,glycan array binding signal (z-score),[1],-0.059
same,glycan array binding signal (z-score),[2],0.023
same,glycan array binding signal (z-score),[3],-0.099
same,glycan array binding signal (z-score),[4],-0.136
same,glycan array binding signal (z-score),[5],-0.297
same,glycan array binding signal (z-score),[6],-0.106
same,glycan array binding signal (z-score),[7],0.277
same,glycan array binding signal (z-score),[8],-0.122
same,glycan array binding signal (z-score),[9],-0.205
same,glycan array binding signal (z-score),[10],-0.291
same,glycan array binding signal (z-score),[11],-0.203
same,glycan array binding signal (z-score),[12],0.041
same,glycan array binding signal (z-score),[13],-0.166
same,glycan array binding signal (z-score),[14],-0.102
same,glycan array binding signal (z-score),[15],0.088
same,glycan array binding signal (z-score),[16],-0.023
same,glycan array binding signal (z-score),[17],-0.112
same,glycan array binding signal (z-score),[18],-0.09
same,glycan array binding signal (z-score),[19],0.055
same,glycan array binding signal (z-score),[20],-0.066
same,glycan array binding signal (z-score),[21],0.151
same,glycan array binding signal (z-score),[22],-0.02
same,glycan array binding signal (z-score),[23],-0.009
same,glycan array binding signal (z-score),[24],-0.089
same,glycan array binding signal (z-score),[25],-0.249
same,glycan array binding signal (z-score),[26],-0.057
same,glycan array binding signal (z-score),[27],0.028
same,glycan array binding signal (z-score),[28],-0.101
same,glycan array binding signal (z-score),[29],-0.098
same,glycan array binding signal (z-score),[30],-0.274
same,glycan array binding signal (z-score),[31],0.012
same,glycan array binding signal (z-score),[32],-0.008
same,glycan array binding signal (z-score),[33],-0.265
same,glycan array binding signal (z-score),[34],-0.095
same,glycan array binding signal (z-score),[35],-0.042
same,glycan array binding signal (z-score),[36],-0.196
same,glycan array binding signal (z-score),[37],-0.225
same,glycan array binding signal (z-score),[38],-0.217
same,glycan array binding signal (z-score),[39],0.033
same,glycan array binding signal (z-score),[40],-0.17
same,glycan array binding signal (z-score),[41],-0.115
same,glycan array binding signal (z-score),[42],0.162
same,glycan array binding signal (z-score),[43],-0.195
same,glycan array binding signal (z-score),[44],0.124
same,glycan array binding signal (z-score),[45],0.485
same,glycan array binding signal (z-score),[46],0.121
same,glycan array binding signal (z-score),[47],0.037
same,glycan array binding signal (z-score),[48],0.015
same,glycan array binding signal (z-score),[49],-0.026
same,glycan array binding signal (z-score),[50],0.165

# Reference: the supplement of paper PMC8728848
